For 31 molecules, activity change, negative = inhibition results are on record in PubChem BioAssay AID1745853 (National Center for Advancing Translational Sciences (NCATS), 2022).

Common to all, as to assay: Primary Screen for Target Class Profiling of Small Molecule Inhibitors of Methyltransferases
In assay [1] the target is Glycine N-methyltransferase (Homo sapiens) (UniProt Q14749). To be noted: purified enzyme, MTase-Glo SAH luminescence; measured here: GNMT inhibition; at 40 µM; stronger effect = lower value. Put shortly:
(§1)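 Each enzyme was assayed with SAM and its substrate. SAH formation detected by MTase-Glo luminescence; single-point 40 uM screen[…].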

In assay [2] the target is Guanidinoacetate N-methyltransferase (Homo sapiens) (UniProt Q14353). The note with it: purified enzyme, MTase-Glo SAH luminescence; measured here: GAMT inhibition; at 40 µM; stronger effect = lower value. The procedure, abridged:
as §1

Assay [3] addresses Histamine N-methyltransferase (Homo sapiens) (UniProt P50135). To be noted: purified enzyme, MTase-Glo SAH luminescence; measured here: HNMT inhibition; at 40 µM; stronger effect = lower value. Put shortly: as §1
In assay [4] the target is Nicotinamide N-methyltransferase (Homo sapiens) (UniProt P40261). To be noted: purified enzyme, MTase-Glo SAH luminescence; measured here: NNMT inhibition; at 40 µM; stronger effect = lower value. Put shortly:
as §1

For assay [5], the target named is Phenylethanolamine N-methyltransferase (Homo sapiens) (UniProt P11086). The note with it: purified enzyme, MTase-Glo SAH luminescence; measured here: PNMT inhibition; at 40 µM; stronger effect = lower value. The procedure, abridged:
as §1

The list shows a part of the results. These are further read-outs of the screen, such as a control signal, another cell line or another target. No call is given for them.
% is set by controls: 0 for no effect and ±100 for the full control effect.

Take `Cc1ccc(C)c(C(=O)CSc2nnc3n(C)c(=O)c4ccc(C(=O)NC5CCCCC5)cc4n23)c1`: the activity change, negative = inhibition is -4.3% in assay [1]; 3.56% in assay [2]; 0.295% in assay [3]; 0.404% in assay [4]; 1.99% in assay [5].

In the case of `Cc1noc2c(NCCN(C)C)cc(-c3ccccc3)nc12`, the activity change, negative = inhibition is -7% in assay [1]; -5.38% in assay [2]; -9.94% in assay [3]; -19.5% in assay [4]; -7.78% in assay [5].

On to `O=C(NCc1ccc(F)c(F)c1)c1ccc2nnc(Cc3ccco3)n2c1`, for which the activity change, negative = inhibition is -26.8% in assay [1]; -19.3% in assay [2]; -8.42% in assay [3]; -22.3% in assay [4]; -34% in assay [5].

`COCCNC(=O)CCc1nnc2n(Cc3ccc(C)cc3)c(=O)c3ccccc3n12`: the activity change, negative = inhibition in assay [1] came to 1.15%; in assay [2], 2.25%; in assay [3], 9.92%; in assay [4], 13.5%; in assay [5], 3.26%.

For the molecule `COC[C@@H]1[C@H](C(=O)N2CCN(c3ccccn3)CC2)CCC(=O)N1C`, the activity change, negative = inhibition in assay [1] is -5.89%; in assay [2], -11.2%; in assay [3], -2.62%; in assay [4], -15.5%; in assay [5] it was -10.1%.

As for `CC(C)C(=O)Oc1ccc(CO)cc1[C@H](CCN(C(C)C)C(C)C)c1ccccc1`, the activity change, negative = inhibition was -3.66% in assay [1]; -0.893% in assay [2]; -6.13% in assay [3]; -14.6% in assay [4]; -3.49% in assay [5].

As for `CC(C)c1ccc(NC(=O)CN(C)S(=O)(=O)c2ccc3[nH]c4c(c3c2)CCCC4)cc1`, the activity change, negative = inhibition in assay [1] was -3.52%; in assay [2], 4.8%; in assay [3], -0.336%; in assay [4], -4.57%; in assay [5], 1.46%.

On to `Cc1c(C(=O)N2CC[C@@](O)(C3CCOCC3)[C@H](C)C2)n(C)c2c(C)cccc12`, for which the activity change, negative = inhibition in assay [1] is -5.39%; in assay [2], -5.91%; in assay [3], -3.01%; in assay [4], -7.05%; in assay [5] it was 1.09%.

With `CC(C)CCNC(=O)C1(C)Cn2c(cc3occc32)C(=O)N1Cc1ccc(Cl)cc1` (stereo not given), the activity change, negative = inhibition was -2.92% in assay [1]; 0% in assay [2]; 4.42% in assay [3]; 2.18% in assay [4]; 0.271% in assay [5].

As for `CCOc1ccc(CNS(=O)(=O)c2cc3[nH]c(=O)[nH]c3cc2C)cc1OC`, the activity change, negative = inhibition was found to be 14.6% in assay [1]; 0% in assay [2]; 14.4% in assay [3]; 1.87% in assay [4]; 8.12% in assay [5].

For the molecule `COc1ccccc1CNc1nc2c(-c3cccc(F)c3)nnn2c2ccccc12`, the activity change, negative = inhibition in assay [1] was -6.6%; in assay [2], 1.04%; in assay [3], -9.64%; in assay [4] it was -16.2%; in assay [5] it was -13.1%.

For the molecule `Cc1nc2c([nH]1)CCN(C(=O)c1ccc(NC(=O)c3ccccc3-c3ccccc3)cc1)c1ccccc1-2`, the activity change, negative = inhibition is 3.92% in assay [1]; -5.66% in assay [2]; 7.72% in assay [3]; -30.4% in assay [4]; 2.06% in assay [5].

As to `Cc1cccc(CN2C(=O)c3ccc(-c4ccco4)n3CC2(C)C(=O)NC2CCCCCC2)c1` (stereo not given), the activity change, negative = inhibition is -1.95% in assay [1]; 3.9% in assay [2]; -1.93% in assay [3]; -6.51% in assay [4]; -1.1% in assay [5].

As for `C=C1C(=O)O[C@@H]2[C@H]3C(C)=CC(=O)C3=C(C)CC[C@@H]12`, the activity change, negative = inhibition in assay [1] was -22.5%; in assay [2], -21.7%; in assay [3], -2.02%; in assay [4] it was -17.5%; in assay [5], -7.12%.

On to `Cc1cccc(N2C(=O)c3ccc(-c4ccco4)n3CC2(C)C(=O)NCc2ccccc2)c1C` (stereo not given), for which the activity change, negative = inhibition in assay [1] was -7.57%; in assay [2] it was 0%; in assay [3] it was 4.04%; in assay [4], 3.54%; in assay [5] it was -0.668%.

Take `c1ccc(-c2nnc([C@H]3CCN(Cc4ccco4)C3)o2)cc1`: the activity change, negative = inhibition was -5.4% in assay [1]; -4.31% in assay [2]; -7.91% in assay [3]; -8% in assay [4]; -7.44% in assay [5].

Regarding `CC1(C(=O)NC2CCCCCC2)Cn2c(nc3ccccc32)C(=O)N1Cc1ccccc1` (stereo not given), the activity change, negative = inhibition is -2.4% in assay [1]; -2.88% in assay [2]; -3.7% in assay [3]; -9.94% in assay [4]; -7.47% in assay [5].

Consider `Cc1ccc(-c2cn3c4c(sc3n2)CCCC4)cc1`, for which the activity change, negative = inhibition is -4.1% in assay [1]; -10.6% in assay [2]; 6.17% in assay [3]; -47.7% in assay [4]; -17.4% in assay [5].

As for `Cn1ccc2cc(CCC(=O)NCc3ccncc3)ccc21`, the activity change, negative = inhibition in assay [1] stood at 13.2%; in assay [2], 1.53%; in assay [3], 10.2%; in assay [4], 4.81%; in assay [5], 10.6%.

Turning to `Nc1ncnc2c1nc(Cl)n2C1OC2COP(=O)(O)OC2C1O` (stereo not given), the activity change, negative = inhibition in assay [1] was -1.88%; in assay [2], 2.23%; in assay [3], -2.8%; in assay [4], -7.48%; in assay [5], 2.71%.

On to `Cc1[nH]c2ccc(F)cc2c1-c1nc2c3cccnc3c3ncccc3c2[nH]1`, for which the activity change, negative = inhibition in assay [1] was 7.28%; in assay [2] it was 2.61%; in assay [3], -1.41%; in assay [4], -10.2%; in assay [5] it was 1.93%.

With `CCOc1ccc(NC(=O)NCCc2noc(C)n2)cc1`, the activity change, negative = inhibition was -1.94% in assay [1]; -2.53% in assay [2]; 1.25% in assay [3]; -9.31% in assay [4]; 5.87% in assay [5].

Take `CC1CCC2(CC1)NC(=O)N(CC(=O)N1CCc3ccccc31)C2=O` (stereo not given): the activity change, negative = inhibition is -9.85% in assay [1]; -10.1% in assay [2]; -6.01% in assay [3]; -10.5% in assay [4]; -11.4% in assay [5].

With `COc1cc(Br)c(S(=O)(=O)Nc2ccc(C(F)(F)F)c(O[C@@H]3CCN(C)C3)c2)cc1OC`, the activity change, negative = inhibition in assay [1] is -7.47%; in assay [2], -10.2%; in assay [3], 0.917%; in assay [4], -21.3%; in assay [5], -6.73%.

Turning to `Cc1nsc(NC(=O)NCc2ccccc2OC(F)(F)F)n1`, the activity change, negative = inhibition in assay [1] is -7.69%; in assay [2], -11.9%; in assay [3] it was -1.58%; in assay [4] it was -6.27%; in assay [5] it was 5.2%.

`CC(C)(C)N1CC(C(=O)NCCCc2ccccc2F)CC1=O` (stereo not given): the activity change, negative = inhibition was determined as 0.766% in assay [1]; 3.81% in assay [2]; 1.24% in assay [3]; 1.1% in assay [4]; 2.03% in assay [5].

Take `CN(C)CCNC(=O)c1cc2n(n1)CC(C)(C(=O)NCc1ccc(F)cc1)N(C)C2=O` (stereo not given): the activity change, negative = inhibition was found to be 12.3% in assay [1]; 0.03% in assay [2]; 7.97% in assay [3]; 11.6% in assay [4]; 4.95% in assay [5].

Regarding `CCCn1c(=O)c2ccc(Cl)cc2n2c(=O)n(Cc3ccccc3C)nc12`, the activity change, negative = inhibition in assay [1] stood at 3.43%; in assay [2] it was 6.55%; in assay [3] it was 3.98%; in assay [4], 3.24%; in assay [5] it was 3.78%.

Consider `CC(=O)Nc1c2n(c3ccccc13)CC(C)(C(=O)NC1CCCCC1)N(Cc1ccco1)C2=O` (stereo not given), for which the activity change, negative = inhibition is -9.09% in assay [1]; -2.91% in assay [2]; -4.61% in assay [3]; -7.46% in assay [4]; 0.048% in assay [5].

`CCCCOC(=O)COc1cc2oc(=O)cc(-c3ccccc3)c2cc1Cl`: the activity change, negative = inhibition in assay [1] is -4.09%; in assay [2], 0%; in assay [3] it was 1.71%; in assay [4] it was 0.579%; in assay [5], -3.49%.

As for `O=C(CCc1nnc2n(Cc3ccc(Cl)cc3)c(=O)c3ccccc3n12)Nc1ccc(F)cc1`, the activity change, negative = inhibition in assay [1] was -1.24%; in assay [2] it was 0%; in assay [3], 8.54%; in assay [4], 3.49%; in assay [5] it was 2.8%.
